Source: PubChem BioAssay AID686979 (National Center for Advancing Translational Sciences (NCATS), 2013)
Where “and” joins values, the source holds several entries; their conditions need not be identical. Equal values may be shown once. In all, about 420,000 compounds went through this assay and about 50,000 (12%) were called active. The shares of active, inactive and inconclusive entries below differ from those in the screen. Calls follow the shape of the dose curve; as a rule, active = well fitted inhibition curve with a large enough effect; inconclusive = small, poorly fitted or top-dose-only effect; inactive = flat fitted curve, though single readings scatter. Potencies of inconclusive entries are left out as doubtful fits.

Experiment: qHTS for Inhibitors of human tyrosyl-DNA phosphodiesterase 1 (TDP1): qHTS in cells in presence of CPT; also: nearly all actives have a fitted effect of over 55% in size
Conditions: chicken DT40 Tdp1-/-;hTDP1 cells + 20 nM CPT, ATP luminescence, 48 h; activity change, negative = growth inhibition: at 46.2 µM (top of the series) unless noted
Outline: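 Chicken DT40 Tdp1-/- cells complemented with human TDP1, 400 cells/well, exposed to compounds plus 20 nM camptothecin for at least 48 h at 37 C; viability read as ATP content by CellTiter-Glo luminescence.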
% is scaled to controls: 0 for no effect and ±100 for the full control effect; potency is read from the fitted curve at half-maximal effect; tags tell the direction and shape of the fitted curve.

Structure (SMILES) | Potency | activity change, negative = growth inhibition
CCOc1ccc(NS(=O)(=O)c2cnc(Cl)c(Cl)c2)cc1 | inconclusive [inhibitor, single point] | 
NC(=O)CC(NC(=O)c1ccccc1)c1ccc(NC2CCC2)c([N+](=O)[O-])c1 (stereo unspecified) | inconclusive [inhibitor, partial curve, poor fit] | 
CCOc1cc(/C=C2\C(=O)N(c3nc(-c4ccc(Br)cc4)cs3)N=C2c2ccccc2)ccc1O | inconclusive [inhibitor, single point] | 
CCOc1ccc(-n2c(C)c(C(=O)O)c3cc(OC)ccc32)cc1 | inactive | 
Cn1c(NCCc2ccncc2)nc2cc(-c3ccsc3)sc2c1=O | active: 20.6 µM | 
CCN(CC)CCCNC(=O)c1cc(Nc2ccc(OC)cc2OC)nc2ccccc12 | inconclusive [inhibitor, single point] | 
CCCn1c2ccccc2c2cnn(CC(=O)NCCCOC(C)C)c(=O)c21 | active: 23.1 µM | 
CC(=O)c1ccc(NC(=S)NCc2ccco2)cc1 | inactive | 
COc1cc(NC(=O)c2cccc(COCC(F)(F)C(F)F)c2)cc(OC)c1OC | inconclusive [inhibitor, full curve] | 
CC(C)(C)C(=O)N1CCN(c2ccc([N+](=O)[O-])c(NCC3CCCO3)c2)CC1 (stereo unspecified) | inconclusive [inhibitor, single point] | 
COc1ccc(C(=O)NCc2ccc(Cl)cc2)cc1S(=O)(=O)N1CCCC1 | inconclusive [inhibitor, single point] | 
c1nc(N2CCOCC2)c2cc(-c3ccoc3)ccc2n1 | active: 8.2 µM | 
Cc1ccc(C)c(N2CCN(C(c3ccccc3)c3nnc(-c4ccccc4)o3)CC2)c1 (stereo unspecified) | inconclusive [inhibitor, single point] | 
CC1CN(Cc2cc(=O)oc3cc(O)c(Cl)cc23)CC(C)O1 (stereo unspecified) | inconclusive [inhibitor, full curve, poor fit] | 
Cc1cccc(C)c1OCC(O)CN(Cc1ccccc1O)C1CCCCC1 (stereo unspecified) | active: 16.4 µM | 
CC[N+](CC)(CC)CCOc1ccc(/C=C/c2ccccc2)cc1 | active: 5.31 µM and active: 3.66 µM and active: 4.61 µM | 
COC(=O)C1CCN(C(=O)COC(=O)c2cc(-c3cccs3)nn2-c2ccccc2)CC1 | inactive | 
O=C(O)C1CCCCC1C(=O)Nc1ccccc1F (stereo unspecified) | inactive | 
COc1ccc(-n2cc(-c3ccccc3)c3c(N4CCOCC4)ncnc32)cc1 | inconclusive [inhibitor, full curve] | 
Cc1ccccc1Cn1c(C)nc2ccccc21 | inconclusive [inhibitor, single point] | 
CN(C(=O)COn1nnc2ccc(Cl)cc21)C1CCS(=O)(=O)C1 (stereo unspecified) | inactive | 
S=c1[nH]nc(CCc2nc3ccccc3[nH]2)n1-c1cccc(Cl)c1 | inactive | 
CCN1CCc2c(sc(-n3cccc3)c2C(CCC(C)C)NC(=O)NCCC(=O)OC)C1 (stereo unspecified) | inconclusive [inhibitor, single point] | 
Cc1cc(C(=O)CN2C(=O)c3cccc(N)c3C2=O)c(C)n1Cc1cccs1 | inconclusive [inhibitor, single point] | 

Structure (SMILES) | Potency | activity change, negative = growth inhibition
COc1ccc(CN(Cc2ccco2)S(=O)(=O)c2ccc(S(=O)(=O)N3CCCC3)cc2)cc1 | inconclusive [inhibitor, full curve, poor fit] | 
CCn1nnc(-c2ccccc2NS(=O)(=O)c2ccc(C(=O)OC)cc2)n1 | inconclusive [inhibitor, single point] | 
CCN(CC(=O)Nc1ccc(OC)cc1)C(=O)c1ccc(N2C(=O)CCC2=O)cc1 | inactive | 
Cc1nc2cc(C(=O)O)ccc2n1C1CCCCC1 | inconclusive [inhibitor, single point] | 
CCN(CC)CCC(C)OC(=O)c1ccc(O)cc1O (stereo unspecified) | inactive | 
O=C(CSc1nc2ccsc2c(=O)n1-c1ccc(Br)cc1)NCc1ccc(Cl)cc1 | inconclusive [inhibitor, single point] | 
O=C(CCN1Cc2ccccc2C1)c1ccc2c(c1)OCCO2 | active: 3.66 µM | 
CCNC(=S)NNc1nc(N2CCCCC2)nc(N2CCOCC2)n1 | inactive | 
COc1ccccc1N1CCN(c2nc(CNC(=O)C3CCOC(C)(C)C3)nc3ccccc23)CC1 (stereo unspecified) | inconclusive [inhibitor, single point] | 
Cc1ccc2c(c1)/C(=C/c1ccco1)C(=O)N2 | inactive | 
CCC(=O)N(CCc1ccccc1C)Cc1cc2cc3c(cc2[nH]c1=O)OCO3 | inconclusive [inhibitor, partial curve] | 
CC1Cc2ccccc2N1C(=O)Cn1c(=O)oc2cc(S(=O)(=O)NC3CCCC3)ccc21 (stereo unspecified) | inconclusive [inhibitor, single point] | 
CCOc1ccc(CCNc2nc3ccccc3n3cnnc23)cc1OCC | inconclusive [inhibitor, single point] | 
O=c1c2ccsc2ncn1Cc1ccc(Cl)cc1 | inconclusive [inhibitor, single point] | 
CCCc1cc(=O)[nH]c(SCC(=O)Nc2ccc(OC)c(S(=O)(=O)N3CCCCC3)c2)n1 | inconclusive [inhibitor, single point] | 
CCOC(=O)C1Nc2ccc(C(=O)O)cc2C2C=CCC12 (stereo unspecified) | inconclusive [inhibitor, single point] | 
CCCNc1nc(Cl)nc(NCc2cccnc2)n1 | inactive | 
O=[N+]([O-])c1cc(/C=N/N/C(=N/c2ccccn2)c2ccccn2)ccc1O | active: 3.26 µM | 
O=C(NCCc1ccccc1)c1ccc(=O)oc1 | inactive | 
Cc1cc(N2CCN(C)CC2)nc2ccc(NC(=S)NCCCN3CCN(C)CC3)cc12 | inconclusive [inhibitor, single point] | 
COC(=O)CCNC(=O)N1CCN(c2nnc(C)c3c(C)n(-c4ccccc4)nc23)CC1 | inactive | 
COc1cc(C(=O)NCc2nc(-c3ccc(Cl)cc3)no2)cc(OC)c1OC | inactive | 
Nc1nc(CSc2n[nH]c(-c3ccccc3)n2)nc(Nc2ccccc2)n1 | inconclusive [inhibitor, single point] | 
O=C(Cn1c(=O)n(Cc2ccc(F)cc2)c(=O)c2sc3ccccc3c21)Nc1ccc(F)cc1F | inconclusive [inhibitor, single point] | 

Structure (SMILES) | Potency | activity change, negative = growth inhibition
Cc1ccc(N2C(=O)CC3(CC4C=CC3C4)C2=O)cc1 (stereo unspecified) | inactive | 
COc1cc(C(=O)Nc2cccc(-c3nc4ccccc4o3)c2C)cc(OC)c1OC | inactive | 
COc1ccc(-c2nc(-c3cccs3)c(-c3cccs3)[nH]2)cc1O | active: 16.4 µM | 
O=C(COc1ccccc1)Nc1nc2ccccc2[nH]1 | inconclusive [inhibitor, single point] | 
O=S(=O)(Nc1ccc(N2CCCCC2)cc1)c1cccs1 | inconclusive [inhibitor, single point] | 
C=Cc1cc2c(cc1O)CCC1C2CCC2(C)C(O)CCC12 (stereo unspecified) | inconclusive [inhibitor, single point] | 
Nn1c(COc2cccc(Cl)c2)nc2ccccc2c1=O | inactive | 
COc1cccc(CNC(=O)c2cnn(-c3ncc4c(n3)-c3ccccc3CCC4)c2C)c1OC | inconclusive [inhibitor, single point] | 
Cc1c(NS(=O)(=O)c2ccc3c(c2)OCCO3)cccc1-c1nc2cccnc2s1 | inconclusive [inhibitor, single point] | 
CCOC(=O)C1C(=O)C=C(c2ccc(OC)cc2)CC1c1ccco1 (stereo unspecified) | inconclusive [inhibitor, single point] | 
N#C/C(C(=O)NCc1ccco1)=C1/SC(Cc2ccc(Cl)cc2)C(=O)N1c1ccccc1 (stereo unspecified) | inconclusive [inhibitor, single point] | 
CC(=O)c1c(N2CCCCC2)nc(=S)n(Cc2ccccc2)c1C | active: 25.9 µM | 
Cc1nc2ccc(-c3nc4ccc(N)cc4[nH]3)cc2[nH]1 | active: 2.91 µM | 
CC(=O)Nc1c(Cl)c2c(c(Cl)c1Br)-c1ccc(Cl)cc1C2 | inconclusive [inhibitor, single point] | 
COc1cc(N=Nc2cccc(S(N)(=O)=O)c2)c2ccccc2c1N | inconclusive [inhibitor, full curve, poor fit] | 
CCCCNC(=O)Cn1c(SCc2cccc(F)c2)nc2ccncc21 | inconclusive [inhibitor, partial curve] | 
COc1ccc2nc(-n3c(O)c(C4=c5ccccc5=NC4=O)[nH]c3=S)sc2c1 |  | inconclusive: -32.3% [inhibitor]
CCOc1ccc(C(=O)NCC(=O)NCC(c2ccc(OC)cc2)N2CCCC2)cc1 (stereo unspecified) | inactive | 
O=S(c1ccccc1)C(c1ccccc1)c1ccccc1 (stereo unspecified) | inconclusive [inhibitor, single point] | 
COc1cc(C)ccc1OCc1cc(C(=O)N2CCN(C)C[C@@H]2c2ccccc2)no1 | inconclusive [inhibitor, single point] | 
NC(=O)CC(NC(=O)c1ccc(Br)cc1)c1ccc(N2CCN(c3ccc(F)cc3)CC2)c([N+](=O)[O-])c1 (stereo unspecified) | active: 25.9 µM | 
CCC(C(=O)Nc1ccccc1Cl)n1nc(C)c2c(C)n(-c3ccccc3)nc2c1=O (stereo unspecified) | inconclusive [inhibitor, single point] | 
COc1ccc(N2CCN(C(=O)[C@@H](NC(=O)c3ccccc3Cl)C(C)C)CC2)cc1 | inconclusive [inhibitor, single point] | 
